Experimental data as given in PubChem BioAssay AID1508623 (National Center for Advancing Translational Sciences (NCATS), 2021).
About 450 (0.94%) of roughly 48,000 compounds were called active. About 19% were inconclusive and are not listed. Calls come from the whole dose curve; as a rule, active = well fitted inhibition curve with a large enough effect; inconclusive = small, poorly fitted or top-dose-only effect; inactive = no such curve, though single readings can be large or run the other way. This is one part of the list.

Assay: Primary qHTS for Identification of Small Molecule Inhibitors of Huntingtin Promoter Activity; note: nearly all actives have a fitted effect of over 50% in size
Details: HEK293 HTT promoter firefly luciferase reporter (activity 0% = vehicle and -100% = no light), 24 h; series mostly up to 57.5 µM; activity change, negative = inhibition: at the top concentration
Procedure, shortened: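 Firefly luciferase signal from promoter-reporter HEK293 cells was scaled between vehicle (0%) and zero RLU (-100%). Compounds were tested at final concentrations of up to 57.5 uM over 24 h at 37 degrees C. PTC124 at 50 uM final served as control inhibitor.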
Potency is the fitted concentration of half-maximal effect.

Activity change, negative = inhibition, inactive:
COc1ccccc1N1CCN(S(=O)(=O)c2c(C)sc3ncn(CC(=O)Nc4ccc(C(F)(F)F)cc4)c(=O)c23)CC1 0.821%
CC(=O)c1ccc(NC(=O)C2CCCN(S(=O)(=O)c3ccc4c(c3)CCCN4C(C)=O)C2)cc1 (stereo not given) -24.7%
Cc1cc(C)c(NC(=O)CCCN2C(=O)COc3ccc(C)cc32)c(C)c1 -11.9%
COc1ccc(CCNC(=O)CN(c2cc(C(F)(F)F)ccc2Cl)S(C)(=O)=O)cc1 -9.49%
Cc1ccc(OCC(=O)Nc2ccccc2C(=O)OCc2cc(=O)n3ccsc3n2)cc1C -16.1%
CCc1ccc(NC(=O)c2cc3nc(-c4ccc(C)cc4)cc(C(F)(F)F)n3n2)cc1 -1.93%
COC(=O)c1sc(NC(=O)c2cc3nc(-c4ccc(Br)cc4)cc(C(F)(F)F)n3n2)c(C(=O)OC)c1C -11.5%
O=C(O)Cc1sc(Nc2ccccc2Cl)nc1-c1ccccc1 69.2%
CCOC(=O)c1c(NC(=O)Cc2coc3cc(C)ccc23)sc2c1CCCC2 -14.4%
CCOC(=O)c1cc(S(=O)(=O)N2CCN(c3cc(C)ccc3C)CC2)[nH]n1 -4.41%
COc1ccccc1Nc1nn2c(=O)c3ccc(C(=O)N4CCCCC4)cc3nc2s1 -13.7%
Cc1cccc(C)c1N1CC(c2nc3ccccc3n2CC(=O)OC(C)C)CC1=O (stereo not given) -22.3%
COc1ccc(NC(=O)CSc2nc3cc(OC)c(OC)cc3c3nc(-c4ccccc4)nn23)cc1Cl 3.09%
COc1ccc(-c2cc3nccn3c(Nc3ncccc3C(N)=O)n2)cc1OC 3.51%
COc1cc(-c2ccno2)ccc1S(=O)(=O)N1CCN(c2ccccc2F)CC1 -9.86%
COC(=O)c1ccc(NC(=O)C(=O)NCCc2sc(-c3cccc(F)c3)nc2C)cc1 -12.1%
CCCN(CCC)C(=O)CSc1nc2ccccc2c(=O)n1Cc1ccco1 -18.1%
COc1ccc(CC(=O)NCc2nc3cccnc3n2Cc2ccc(C)cc2)cc1 -14.2%
CC1CCN(S(=O)(=O)c2cc3c4c(c2)CC(=O)N4CCC3)CC1 -21.9%
Fc1ccc(-c2cc(-c3ccccc3)c3c(n2)-c2cc(F)ccc2OC3)cc1 -14.2%
COc1ccc(S(=O)(=O)NCC(c2ccco2)N2CCOCC2)cc1 (stereo not given) -9.6%
CN(C)S(=O)(=O)c1ccc2c(c1)nnn2CCNC(=O)Nc1ccc(Br)cc1 -28.3%
Cn1c(=O)c2c(nc(NCc3ccccc3)n2Cc2ccccc2Cl)n(C)c1=O -12.4%
O=C(C1CC1)N1CCN(c2nc3ccc(F)cc3s2)CC1 -6.8%
CCCCOc1ccc(CNC(=O)c2cnc3sc(N4CCOCC4)nn3c2=O)cc1 -3.46%
COc1cccc(OCc2nc3ccccc3n2CCOc2ccccc2C)c1 -29.7%
Cn1nnc2c(C(N)=O)ncn2c1=O
CCOC(=O)C(C)Oc1cccc2c(=O)n(CC(=O)Nc3ccc4c(c3)OCCO4)ccc12 (stereo not given) 5.56%
Cc1ccc(C)c(Nc2nn3c(=O)c4ccc(C(=O)NC5CCCCC5)cc4nc3s2)c1 -3.24%
COc1ccc(CCNC(=O)CCCCn2c(=O)c3ccccc3n(Cc3ccc(F)cc3Cl)c2=O)cc1OC -6.81%
CCc1ccc(NC(=O)Cn2c(=O)n(CCC(=O)NCc3ccc4c(c3)OCO4)c(=O)c3ccccc32)cc1 -7.14%
CCC1CN(C(=O)Nc2cc(C)cc(C)c2)c2ccccc2O1 (stereo not given) -8.71%
Cc1c(C)n(Cc2ccccc2)c2ccc(C(=O)NCc3ccco3)cc12 -4.54%
Cc1c(-c2nsc(NC(=O)c3cccs3)n2)nnn1-c1ccc(Br)cc1 -3.09%
COc1cccc(Cn2c(=O)n(-c3ccccc3C)c(=O)c3c2c2cc(C)ccc2n3C)c1 -32.9%
Cc1ccc(CNC(=O)CN2C(=O)C3CCCCN3c3ccc(C(=O)N4CCCC4)cc32)cc1 (stereo not given) -6.65%
COc1ccc(Cl)cc1C(=O)Nc1ccc(-c2nnc3n2CCCCC3)cc1 -7.22%
O=C(NCc1ccccc1Cl)c1ccc2c(O)c(S(=O)(=O)c3ccccc3)c(=O)[nH]c2c1 -3.38%
Cc1cccc(Cc2c(C)nc3nc(SCc4ccccc4C)nn3c2C)c1 -13%
CCc1nn(CC(=O)NC(C)c2ccccc2)c(=O)c2cc3sccc3n12 (stereo not given) 7.63%
CCOC(=O)C1=C(CS(=O)(=O)c2ccc(F)cc2)NC(=O)NC1c1ccc(OCC)c(OC)c1 (stereo not given) -12.9%
CC(C)CCNC(=O)[C@@H](c1ccccc1)N1Cc2ccccc2C1=O -15.1%
CCOc1ccc(NC(=O)Cn2nnc(C(=O)Nc3ccc(OCC)cc3)c2N)cc1 23.6%
Cc1ccc(C)c(N2CCN(c3cc(C)nc4c(-c5ccc(Cl)cc5)c(C)nn34)CC2)c1 -18.7%
Cc1cc(C)cc(OCC(=O)NCC2(N(C)C)CCCCC2)c1 -0.884%
CCCc1cc(=O)n2[nH]c(NCc3ccccc3OC)nc2n1 -11.5%
O=C(COc1ccccc1-c1nc(-c2ccccc2)no1)Nc1ccccc1[N+](=O)[O-] -5.91%
CC(=O)Nc1ccc(C2Nc3c(C)cc(C)cc3-c3cc(C)nn32)cc1 (stereo not given) -10.1% [at 11.5 µM]
Cc1ccc(S(=O)(=O)NCCSc2nnnn2-c2ccc(Cl)c(C(=O)O)c2)cc1 -8.21%
CCOC(=O)c1ccc(NC(=O)C(Cc2ccccc2)NS(=O)(=O)c2ccc(Br)s2)cc1 (stereo not given) 4.14%
CCOC(=O)c1c(C)oc2nc(C)nc(NCc3ccccc3OCC)c12 -2.03%
CCCc1nc2ccccc2n2c(-c3cccc(C)c3)c3c(=O)n(C)c(=O)n(C)c3c12 7.13% [at 11.5 µM]
O=C(NCc1ccccc1Cl)C1CCCN(c2ncnc3onc(-c4ccc(F)cc4)c23)C1 (stereo not given) -12.3%

Potency, active:
Cc1ccc(S(=O)(=O)N2CCC(c3ccncc3)CC2)c(C)c1 15.8 µM
COc1cc(OC)c(NS(=O)(=O)c2ccc3c(c2)NC(=O)CCS3)cc1Cl 28.2 µM
